In PubChem BioAssay (NCI) one finds TGI and GI50 data, which are given here for 3 compounds.

Among the test systems are MCF7 breast; RXF 393 renal; K-562 leukemia; MOLT-4 leukemia; RPMI-8226 leukemia; EKVX NSCLC; NCI/ADR-RES ovarian; SW-620 colon; HOP-92 NSCLC; CCRF-CEM leukemia; MDA-MB-435; A498 renal; NCI-H522 lung; KM12 colon; SNB-75 CNS; OVCAR-5 ovarian; OVCAR-8 ovarian; SF-268 CNS; UACC-62 melanoma; HL-60(TB) leukemia; UO-31 renal; TK-10 renal; COLO 205 colon; ACHN renal; T-47D breast; IGROV1 ovarian; SK-OV-3 ovarian; MALME-3M melanoma; MDA-MB-231 breast; SK-MEL-2 melanoma; CAKI-1 renal; MDA-N; NCI-H23 lung; HCT-15 colon; SF-295 CNS; SNB-19 CNS; OVCAR-4 ovarian; HS 578T breast; SN12C renal; SK-MEL-28 melanoma; SR leukemia.

What all share (experiment): growth of human tumour cells (NCI), 48 h

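The compound was tested at five concentrations on cells cultured in 96-well plates, with a 48-hour exposure period. GI50: concentration for 50% inhibition of growth.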 The source holds more than one record for some entries. The other results are left out here. The source may hold further records. For some of these results: Values that stand side by side repeat one measurement in other runs, samples, wells, individuals or studies. A tag in brackets gives the origin of a value. A, B and so on number the origins entry by entry.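 TGI is the concentration that stops growth completely.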 For some of these results: Records of one sample usually come from different ranges of test concentrations, which the source does not state; a value can be the end of its range.

On to `CC[C@](C)(O)C(=O)O[C@H]1C(=O)O[C@@H]2C[C@H]3C(C)=CC(=O)[C@@H](O)[C@]3(C)[C@H]3[C@@]4(O)OC[C@]32[C@@H]1[C@@H](C)[C@H]4O`, for which the TGI is 18.7 µM [mean of 2 tests] and 647 nM [mean of 3 tests] in the assay with MCF7 breast; 1.43 µM and 105 nM in the assay on RXF 393 renal; 16.8 µM and 132 nM in the assay on K-562 leukemia; 9.06 µM and 77.5 nM in the assay on MOLT-4 leukemia; 2.02 µM and 103 nM in the assay with RPMI-8226 leukemia; 10.3 µM and 208 nM in the assay on EKVX NSCLC. Also, the TGI is 288 nM and 23.8 µM with NCI/ADR-RES ovarian; 3.97 µM and 393 nM in the assay on SW-620 colon; 923 nM and 54.4 nM with HOP-92 NSCLC; 14.4 µM and 256 nM with CCRF-CEM leukemia.
In the case of `COc1cc2cc(C(=O)N3CC(CCl)c4c3cc(NC(=O)C(C)(C)c3ccccc3[N+](=O)[O-])c3ccccc43)[nH]c2c(OC)c1OC` (centres undefined), the TGI in the assay on MDA-MB-435 was 8.12 µM and > 600 µM; in the assay on A498 renal, 2.63 µM and 294 µM; in the assay on NCI-H522 lung it was 9.38 µM and 306 µM; with KM12 colon it was 8.49 µM and 283 µM; with MCF7 breast it was 724 nM and 213 µM; with SNB-75 CNS, 24.7 µM and > 600 µM. For the same compound, the TGI in the assay on OVCAR-5 ovarian is 22.4 µM and > 600 µM; in the assay with OVCAR-8 ovarian it was 5.6 µM and > 600 µM; in the assay on SF-268 CNS, 50 µM and > 600 µM; with UACC-62 melanoma, 9.73 µM and 112 µM; with HL-60(TB) leukemia it was 50 µM and > 600 µM; in the assay with UO-31 renal, 3.45 µM and 119 µM. Also, the TGI with TK-10 renal was 26.3 µM and > 600 µM; in the assay with COLO 205 colon, 11.7 µM and > 600 µM; in the assay with ACHN renal, 1.81 µM and 22.1 µM; in the assay on T-47D breast, 50 µM and > 600 µM; in the assay with K-562 leukemia it was 50 µM and > 600 µM; in the assay with MOLT-4 leukemia it was 50 µM and > 600 µM. For the same compound, the TGI is 7.58 µM and 239 µM in the assay with IGROV1 ovarian; 28.4 µM and 430 µM with SK-OV-3 ovarian; 16.3 µM and 341 µM in the assay on MALME-3M melanoma; 11.6 µM and > 600 µM with MDA-MB-231 breast; 13.7 µM and 236 µM in the assay on SK-MEL-2 melanoma; 50 µM and > 600 µM in the assay with EKVX NSCLC. For the same compound, the TGI with CAKI-1 renal was 219 nM and > 600 µM; with NCI/ADR-RES ovarian, 3.74 µM and 93 µM; in the assay with MDA-N, 16.8 µM and 377 µM; with SW-620 colon, 45.9 µM and > 600 µM; in the assay with NCI-H23 lung, 1.77 µM and 83.8 µM; in the assay on HCT-15 colon it was 12.4 µM and 182 µM. The TGI with SF-295 CNS was 17 µM and 278 µM; in the assay with SNB-19 CNS it was 50 µM and > 600 µM; in the assay with HOP-92 NSCLC, 17.8 µM and > 600 µM; with OVCAR-4 ovarian, 30.8 µM and 322 µM; in the assay with CCRF-CEM leukemia, 1.3 µM and > 600 µM; in the assay on HS 578T breast it was 29.9 µM and > 600 µM. The TGI in the assay with SN12C renal is 50 µM and > 600 µM; with SK-MEL-28 melanoma it was 17 µM and > 600 µM.
On to `O=C(Nc1cccc(Cl)c1)Nc1ncc(CCNc2ncnc3ccsc23)s1`, for which the GI50 in the assay with SR leukemia was 1.96 µM [sample A, 1 test] and 29.8 nM [sample B, 1 test].
